Measurements published in publication PMC3063768, “Rhesus TRIM5α Disrupts the HIV-1 Capsid at the Inter-Hexamer Interfaces” (PLoS Pathogens, 2011).

B1: Rhesus macaque TRIM5α coiled-coil and SPRY domains (TRIM5αrh CC-SPRY, […]) (domain or fragment)
chain: not shown
notes: TRIM5α, rhesus macaque, coiled-coil and B30.2/SPRY domains, […]; Dimer by SEC-MALS (92 kDa observed, 46.1 kDa theoretical); The C-terminal His tag was used for Ni-NTA-Nanogold labelling; also called CC-SPRYrh; rhesus TRIM5α CC-SPRY; source: SF21 insect cells, recombinant baculovirus, purified (Ni-NTA, Superdex 200, Hi-Trap QP or StrepTrap-HP); not shown: His6, C-terminal, kept
B2: Human TRIM5α coiled-coil and SPRY domains (TRIM5αhu CC-SPRY, […]) (domain or fragment)
chain: not shown
notes: TRIM5α, human, coiled-coil and B30.2/SPRY domains, […]; Dimer by SEC-MALS (89 kDa observed, 45.6 kDa theoretical); also called human TRIM5α CC-SPRY; source: SF21 insect cells, recombinant baculovirus, purified (Ni-NTA, Superdex 200, Hi-Trap QP or StrepTrap-HP)

Molecular target: the molecule itself
Experiment: SEC-MALS; analytical Superdex200 with in-line multi-angle light scattering; about 100 µL of 2 mg/mL protein; 25 mM sodium phosphate pH 7.5, 250 mM NaCl, 10% glycerol, 0.02% sodium azide

| Protein | stoichiometry N |
| --- | --- |
| B1 | 2 |
| B2 | 2 |
